Results: PubChem BioAssay AID1963874 (Molecular Pharmacology Branch, DTP, NCI, 2024)
For part of its entries the source gives two or more results. The list is limited to them. An entry can have further records. Values given together repeat one measurement in other runs, samples, wells, individuals or studies. Dates in brackets are months of testing. Additions like (4×) give the number of equal values in this list.

Test system: 253994-281-T-J1-PDC KRAS-mutant spheroids with HUVEC/MSC, viability
Test: Anticancer human tumor 253994-281-T-J1-PDC patient-derived colorectal carcinoma cell line growth inhibition [KRAS2]
Settings: for IC50: compound alone; for viability, T/C: stronger effect = lower value
Description: Multicellular complex tumor spheroid response to RAS pathway inhibitors in combination with a targeted agents in patient-derived cell lines with oncogenic KRAS variants from multiple cancer types
A high-throughput screen of multi-cell type tumor spheroids was designed to identify active combinations of targeted small molecules and KRAS pathway inhibitors. Complex spheroids include a stromal component modeled by human endothelial cells (HUVEC) and fibroblasts modeled by human mesenchymal stem cells (MSCs). The concentration ranges selected for each drug and investigational agent were based upon clinically achievable concentrations if the clinical Cmax of the agent was known.
Compounds. The drugs and investigational agents: BI-3406 (NSC825286), BAY-293 (NSC824723), batoprotafib (TNO155; NSC825523), sotorasib (AMG 510; NSC818433), MRTX1257 (NSC819558), elimusertib (BAY 1895344; NSC800525), molibresib (GSK525762; NSC774829), temuterkib (LY3214996; NSC803410), venetoclax (NSC766270), alisertib (NSC759677), olaparib (NSC753686), talazoparib (NSC767125), erdafitinib (NSC781556), ipatasertib (NSC767898), cabozantinib (NSC761068), nintedanib (NSC756659), abemaciclib (NSC768073), docetaxel (NSC628503), trametinib (NSC758246), and sapanisertib (NSC764658) were obtained from the National Cancer Institute (NCI) Developmental Therapeutics Program Chemical Repository. The FDA-approved anticancer drug set is available from the Developmental Therapeutics Program. […] The stock solutions were prepared in dimethyl sulfoxide (DMSO, Sigma-Aldrich, St. Louis, MO, cat. D2650) at 800-fold the tested concentration and stored at -70 degrees C prior to their use. All drugs and investigational agents were tested over a range starting from a high concentration at or near the clinical Cmax and decreasing in half-log increments. If the clinical Cmax for an agent had not been determined, the highest concentration tested was 10 microM.
Cell Culture. All cells were maintained in an incubator at 37 degrees C and 5% CO2 with 95% humidity. The PDC lines were cultured according to standard operating procedures established by the NCI PDMR (https://pdmr.cancer.gov/sops/default.htm). Briefly, all PDCs were thawed and cultured in Matrigel-coated flasks prepared with a working solution of 1X Ham's F-12 nutrient mix, without supplementation (Invitrogen, Waltham, MA, cat. 11765054), 100 U/mL penicillin-streptomycin (Invitrogen, cat. 15140122), and 2.5% Matrigel (Corning Inc., Corning, NY, cat. 354248) for the first three passages. All PDCs were cultured in complete DMEM/F-12 media containing advanced DMEM/F-12 (Invitrogen, cat. 12634028), 4.9% defined fetal bovine serum, heat inactivated (HyClone Laboratories Inc., Logan, UT, cat. SH30070.03HI), 389 ng/mL hydrocortisone (Sigma-Aldrich, cat. H4001), 9.7 ng/mL human EGF recombinant protein (Invitrogen, cat. PHG0313), 23.4 microg/mL adenine (Sigma-Aldrich, cat. A2786), 97.3 U/mL penicillin-streptomycin (Invitrogen, cat. 15140122), 1.9 mM L-glutamine (Invitrogen, cat. 25030081), and 9.7 microM Y-27632 dihydrochloride (Tocris Bioscience, Bristol, United Kingdom, cat. 1254). The PDCs were cultured in complete DMEM/F12 media without 9.7 microM Y-27632 dihydrochloride for at least two passages prior to the screen. The established cell line HOP-62 was cultured in RPMI 1640 medium, HEPES (Invitrogen, cat. 22400105) with 10% defined fetal bovine serum (HyClone Laboratories Inc., cat. SH30070.03) and 2 mM L-glutamine (Invitrogen, cat. 25030081). The pooled donor HUVEC were cultured in endothelial cell growth medium 2 (PromoCell, Heidelberg, Germany, cat. C-22011) and the hMSC were cultured in mesenchymal stem cell growth medium 2 (PromoCell, cat. C-28009). For all experiments, HUVEC and hMSC were used at passages </=5, while the malignant cell lines were used at passages </=15. […]
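Also: spheroids exposed to agents for seven days before readout.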
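For viability, T/C in this document: percent of DMSO vehicle control viability.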

With `COc1cc(OC)cc(N(CCNC(C)C)c2ccc3ncc(-c4cnn(C)c4)nc3c2)c1` the IC50 was 7.49 µM, 6.78 µM, > 10 µM, 6.95 µM, 7.28 µM and the viability, T/C (compound alone 10 µM) was 36.7, 26.6, 59.5, 32.2, 34.7%.
For `COc1cc(Nc2ncc3c(n2)-c2ccc(Cl)cc2C(c2c(F)cccc2OC)=NC3)ccc1C(=O)O`, the IC50 was < 31.6 nM and > 10 µM and the viability, T/C (compound alone 3.16 µM) was 79.9, 61.6, 43.9, 49.7, 50.6%.
With `C=CC(=O)N1CCN(c2nc(OCC3CCCN3C)nc3c2CCN(c2cccc4cccc(C)c24)C3)CC1CC#N` (configuration not stated) the viability, T/C (compound alone 0.316 µM) was 104, 77.2, 83.3, 91.7, 77, 83.8, 86.7, 101, 93.4, 96.8, 95.9% [2021-08] and 86.8, 93.1, 93.4, 98.7, 97.7, 96.1% [2021-09], the viability, T/C (compound alone 1 µM) was 111, 92.8, 91.7, 72.9 (2×), 96.2, 91.6, 86.6, 84.7, 80.7, 86.4% [2021-08] and 85.2, 93.2, 90.8, 107, 92.1, 97.6% [2021-09] and the viability, T/C (compound alone 3.16 µM) was 96, 39.6, 24.2, 11.3, 10.2, 7.14, 62.4, 60.2, 23.3, 43.3, 13.5% [2021-08] and 67.1, 85.1, 66.2, 77.6, 58.3, 55.3% [2021-09]. For the same molecule, the IC50 (run of 08/19/2021) was > 3.16 µM, 2.43 µM, 2 µM, 1.53 µM, 1.5 µM, 1.73 µM and the IC50 (run of 08/26/2021) was > 3.16 µM, 1.92 µM, 2.58 µM, 1.78 µM.
For `CNCc1ccccc1-c1csc(C(C)Nc2nc(C)nc3cc(OC)c(OC)cc23)c1` (configuration not stated), the viability, T/C (compound alone 0.1 µM) was 92.6, 82.3, 97.8, 93.2, 76.4, 87, 93.8, 105, 87.2, 89.8, 106% [2021-08] and 98.4, 89.8, 88.4, 90.9, 94.1, 102% [2021-09], the viability, T/C (compound alone 0.316 µM) was 82.3, 81.5, 105, 80.5, 80, 78.1, 92.1, 84.1, 95.7, 98.7, 89.1% [2021-08] and 87.5, 90.8, 87.4, 87.2, 97.8, 86.1% [2021-09] and the viability, T/C (compound alone 1 µM) was 84, 84.2, 82.1, 77.8, 70, 67.1, 81.7, 85.7, 80.3, 96.6, 92.9% [2021-08] and 76.5, 95, 77.1, 101, 87.9, 85.8% [2021-09]. The viability, T/C (compound alone 3.16 µM) was 95, 51.2, 25.6, 21.5, 19, 5.03, 44, 34, 39.1, 37.8, 35.6% [2021-08] and 47, 52.2, 30.1, 45, 47.2, 37.9% [2021-09] and the IC50 (run of 08/19/2021) was 1.37 µM and 5.22, 3.25, 1.93, 1.75, 1.57 µM [2021-08].
For `Cn1ncnc1[C@H]1c2n[nH]c(=O)c3cc(F)cc(c23)N[C@@H]1c1ccc(F)cc1`, the viability, T/C (compound alone 0.00316 µM) was 110, 88.3, 114, 102, 98.5% and the viability, T/C (compound alone 0.1 µM) was 85.2, 75.4, 103, 88.5, 99.4%.
For `COc1cc2nc(C)nc(NC(C)c3cc(N)cc(C(F)(F)F)c3)c2cc1OC1CCOC1` (configuration not stated), the viability, T/C (compound alone 0.1 µM) was 75, 96.5, 97, 93.1, 75.7, 89.2, 94.5, 102, 87.6, 95.2, 93.5% [2021-08] and 91.6, 85.8, 95.5, 84.3, 94.3, 96.5% [2021-09], the viability, T/C (compound alone 1 µM) was 63.7, 81.4, 104, 66.5, 73.5, 83.2, 86, 103, 74.1, 87, 77.2% [2021-08] and 77, 85.5, 91.8, 75.1, 91.2, 85.4% [2021-09] and the viability, T/C (compound alone 3.16 µM) was 66.5, 83.5, 80, 72.6, 63, 78, 90.2 (2×), 94.2, 92.7, 80.4% [2021-08] and 86.2, 87.5, 78.6, 81, 85.5, 90.2% [2021-09]. The viability, T/C (compound alone 10 µM) was 72.4, 77.5, 91.6, 55.2, 77.1, 64.4, 89.7, 81.2, 80.5, 82.7, 78.9% [2021-08] and 82, 84.8, 77, 69.3, 79.7, 88.3% [2021-09].
With `CC(C)NCC(C(=O)N1CCN(c2ncnc3c2C(C)CC3O)CC1)c1ccc(Cl)cc1` (configuration not stated) the viability, T/C (compound alone 0.316 µM) was 81.7, 99, 112, 103, 89.7% and the viability, T/C (compound alone 3.16 µM) was 97.7, 75, 101, 103, 81.3%.
`C=CC(=O)N1CCN(c2nc(=O)n(-c3c(C)ccnc3C(C)C)c3nc(-c4c(O)cccc4F)c(F)cc23)C(C)C1` (configuration not stated) was tested, and the viability, T/C (compound alone 0.1 µM) was 91.4, 109, 104 (2×), 110, 108, 101 (2×), 103, 95.2, 102% [2021-08] and 97.5, 107, 105, 98.9, 81.7, 85.6% [2021-09], the viability, T/C (compound alone 1 µM) was 74.8, 92.9, 83.5, 102 (2×), 90.1, 105, 112, 107, 103, 106% [2021-08] and 93.5, 96.7, 83.7, 97.2, 102, 93.8% [2021-09] and the viability, T/C (compound alone 3.16 µM) was 85.6, 81.7, 105, 106, 94.5, 104, 90.5, 83.9, 94.1, 102, 108% [2021-08] and 96.9, 100, 92.9, 90.4, 96.1, 90.5% [2021-09]. For the same molecule, the viability, T/C (compound alone 10 µM) was 67.2, 88.2, 94.3, 97.6, 118, 105, 93, 89.2, 96.7, 90.2, 92.7% [2021-08] and 101, 89.8, 94.2, 95.5, 95.3, 87.4% [2021-09].
With `CC1OCC2(CCN(c3cnc(Sc4ccnc(N)c4Cl)c(N)n3)CC2)C1N` (configuration not stated) the viability, T/C (compound alone 0.1 µM) was 89.6, 85.2, 86.2, 78.4, 85.7, 74.2, 88.4, 95.8, 92, 88.6, 101% [2021-08] and 90.2, 98.5, 107, 102, 96.2, 86.1, 84.3, 80.8% [2021-09], the viability, T/C (compound alone 0.316 µM) was 83.5, 77.2, 84.6, 68.1, 76.5, 57.2, 80.1, 85.7, 79, 87.5, 86.2% [2021-08] and 89.6, 86, 88.8 (2×), 83.9, 91.9, 75.8, 81.1% [2021-09] and the viability, T/C (compound alone 1 µM) was 83.1, 84.9, 88.5, 58.4, 63.3, 57.6, 69, 71.5, 76.3, 79.4, 70.1% [2021-08] and 83.2, 85.8, 86.4, 77.8, 81.1, 77.3, 81.7, 68.6% [2021-09]. The viability, T/C (compound alone 3.16 µM) was 49.7, 41.1, 58.7, 49, 44.1, 51.1, 57.4, 65.8, 63.2, 71.5, 55.5% [2021-08] and 69.2, 69.3, 78.2, 75.9, 62.8, 74.7, 64.7, 66.3, 78.4% [2021-09], the viability, T/C (compound alone 10 µM) was 46.7, 68.3, 41.8, 36.9, 31.7, 27.8, 34.7, 40.6, 50.4, 40.9, 36.5% [2021-08] and 53, 56, 55.9, 55.5, 44.4, 57.4, 49.9, 48.5, 54.4% [2021-09] and the IC50 (run of 08/19/2021) was 3.13 µM, > 10 µM, 5.72 µM, 2.5 µM, 2.24 µM, 2.11 µM. The IC50 (run of 08/26/2021) was 4.3 µM, 6.3 µM, > 10 µM, 7.02 µM, 4.15 µM and the IC50 (run of 09/02/2021) was > 10 µM, 7.23 µM, 9.95 µM, 9.52 µM.
`COC(=O)c1ccc2c(C(=Nc3ccc(N(C)C(=O)CN4CCN(C)CC4)cc3)c3ccccc3)c(O)[nH]c2c1` was tested, and the IC50 was 6.54 µM, 5.62 µM, > 10 µM, 7.65 µM and the viability, T/C (compound alone 10 µM) was 29.5, 12, 63.1, 39.5, 62.7%.
For `CC1(C)CCC(CN2CCN(c3ccc(C(=O)NS(=O)(=O)c4ccc(NCC5CCOCC5)c([N+](=O)[O-])c4)c(Oc4cnc5[nH]ccc5c4)c3)CC2)=C(c2ccc(Cl)cc2)C1`, the viability, T/C (compound alone 10 µM) was 78.5, 57.2, 64.1, 71.2, 84.8%.
